Test results as given in PubChem BioAssay AID1346378 (National Center for Advancing Translational Sciences (NCATS), 2018).
The whole screen tested about 420,000 compounds, of which about 540 (0.13%) were called active. The shares of active, inactive and inconclusive entries below differ from those in the screen. No stated cut-off is given here; in the data, active means activity change below about -50%; inconclusive means mostly about -30% to -49%; inactive means weaker than that. More than one record can exist for a structure, and the calls need not agree.

Each compound was assayed against Phosphatidylinositol 4-kinase type 2-alpha (Homo sapiens) (UniProt Q9BTU6) (assay: qHTS for small molecular inhibitors of PI4K2A). Conditions: purified PI4K2A, ADP-Glo luminescence, 1 h; at 76.9 µM, active compounds read low.
Sequence of UniProt Q9BTU6 (Q9BTU6 whole entry, looked up): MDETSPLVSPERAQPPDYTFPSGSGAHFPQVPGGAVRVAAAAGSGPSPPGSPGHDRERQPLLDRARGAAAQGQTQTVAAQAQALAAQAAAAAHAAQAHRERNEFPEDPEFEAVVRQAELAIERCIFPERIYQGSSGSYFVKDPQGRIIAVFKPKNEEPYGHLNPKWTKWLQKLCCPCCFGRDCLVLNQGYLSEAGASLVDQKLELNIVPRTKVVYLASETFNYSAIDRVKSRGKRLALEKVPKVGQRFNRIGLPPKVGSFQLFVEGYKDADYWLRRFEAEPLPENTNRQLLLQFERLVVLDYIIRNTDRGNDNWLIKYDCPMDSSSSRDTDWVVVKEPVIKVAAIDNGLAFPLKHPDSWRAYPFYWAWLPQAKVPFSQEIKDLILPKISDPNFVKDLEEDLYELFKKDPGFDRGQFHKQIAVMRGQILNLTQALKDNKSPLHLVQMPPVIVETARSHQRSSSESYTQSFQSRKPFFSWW
Procedure, shortened: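 In this quantitative HTS, ADP production by PI4K2A was quantified luminescently after 1 h at ambient temperature; 100 microM adenosine served as plate-quality control.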
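Further: -100% = wells without enzyme as full effect.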

| Structure (SMILES) | activity change, negative = inhibition |
| --- | --- |
| Cc1cc(NC(=O)c2cccs2)ncc1NC(=O)C(C)C | inconclusive: -34.8% |
| CC(=NCc1ccco1)c1c(C(F)(F)F)[nH]n(-c2nc3ccccc3s2)c1=O | inconclusive: -32.6% |
| CC(=O)Nc1ccc(N2C(=O)c3cccc4c(O)ccc(c34)C2=O)cc1 | inconclusive: -34.4% |
| C=C(C)C(=O)N1CC2(CC(c3cccc(NC(=O)/C=C\C=C/C)c3)=NO2)C[C@H]1C(N)=O (stereo partly specified) | inconclusive: -37.8% |
| O=C(O)c1ccc(N=Nc2c(O)ccc3ncccc23)cc1 | inactive: -27.8% |
| O=[N+]([O-])c1ccc(C=Nc2ccc(Cl)cc2Cl)s1 | inconclusive: -33.2% |
| N#C/C(=C\c1ccc(C(=O)O)cc1)c1ccccn1 | active: -65.2% |
| Cn1c(-c2sc3cc(C(F)(F)F)cnc3c2-c2ccccn2)n[nH]c1=S | inactive: -1.18% |
| Nc1cccc(-c2nc3ccc(N)cc3s2)c1 | inconclusive: -33.9% |
| CCOc1cc(/C=C2/C(=O)N(c3ccccc3)N=C2C)ccc1OC(=O)c1ccco1 | inconclusive: -42.2% |
| CC(=O)NC1N=C(C)N(c2ccccc2)C1=O (stereo unspecified) | inconclusive: -33% |
| COC(=O)C[C@H]1c2cc(F)ccc2S(=O)(=O)N1Cc1ccccc1 | active: -59.8% |
| CC1=C(C)CS(=O)N(S(=O)(=O)c2ccc(Cl)cc2)C1 (stereo unspecified) | inconclusive: -49.7% |
| NC1=CC(=O)C(=O)c2ccccc21 | inconclusive: -30% |
| CCOC(=O)c1nn(-c2ccccc2)c(=O)c2c(N)scc12 | inconclusive: -37.2% |
| COc1ccc(CN(CCN2CCOCC2)C(=O)c2cc(F)ccc2C)cc1OC | inactive: -0.971% |
| CCOC(=O)CNS(=O)(=O)c1ccc2c3c(cccc13)C(=O)N2CC | inactive: -1.43% |
| Cc1cc(-c2csc(N)n2)c(C)n1CCc1ccccc1 | inconclusive: -45.3% |
| Cc1cccc(C#Cc2ccccc2)n1 | active: -50.4% |
| CCCCc1cc(=O)oc2cc(OCC(=O)NC(Cc3c[nH]c4ccc(O)cc34)C(=O)O)ccc12 (stereo unspecified) | active: -67.6% |
| Cc1ccc(N=Nc2c(O)ccc3n[nH]nc23)cc1 | inactive: -3.72% |
| CC(C)CC(=O)/C=C/n1c(=S)oc2ccccc21 | inactive: -4.3% |
| COc1cccc(N2CCN(C(=O)c3cc4c(=O)n(Cc5ccco5)ccc4nc3C)CC2)c1 | inconclusive: -43.3% |

| Structure (SMILES) | activity change, negative = inhibition |
| --- | --- |
| O=C(Oc1ccc(-c2cnc3ccccc3n2)cc1)c1ccco1 | active: -77.3% |
| CCOC(=O)CN1C(=O)S/C(=C\c2ccc(-c3ccc(C(=O)O)c(Cl)c3)o2)C1=O | inactive: -5.29% |
| Cc1ccc(-c2nn(-c3ccccc3)cc2C=C2C(=O)CC(C)(C)CC2=O)cc1 | inconclusive: -30.2% |
| COC(=O)c1ccc(Cn2ccc3ccc(-c4ccc5ccn(C(=O)c6cccc(OC)c6)c5c4)cc32)cc1 | inactive: 6.84% |
| CN1CCN(CCCNC(=O)c2ccc3nc(Cc4ccccc4)oc3c2)CC1 | inconclusive: -34.4% |
| COc1ccc(C(=O)/C=C/Nc2ccccn2)cc1 | inconclusive: -44.3% |
| CCC(=O)c1c(O)cc(O)cc1O | inactive: -3.96% |
| O=C(COc1ccc2c(-c3ccccc3)cc(=O)oc2c1)N[C@@H](Cc1c[nH]c2ccc(O)cc12)C(=O)O | inconclusive: -39.6% |
| Oc1ccc(N=Cc2ccc(OCc3ccccc3)cc2)cc1 | inconclusive: -46.4% |
| CCN1/C(=C/C=C/c2sc3ccccc3[n+]2CC)Sc2ccccc21 | inconclusive: -45.2% |
| CCN1C=CC(=C2C(=O)c3ccccc3C2=O)C=C1 | active: -52.1% |
| N/C(=N\OC(=O)c1ccc(F)cc1)c1nonc1N | inconclusive: -46.9% |
| CC1=NN(c2ccccc2)C(=O)/C1=C\c1cn(CCC#N)nc1-c1ccc(Cl)cc1 | inconclusive: -30.6% |
| CCOc1ccc(C(=O)O/N=C(\N)c2ccccn2)cc1 | active: -87.9% |
| CCCn1cnc2c(SCc3ccccn3)nc(N)nc21 | inconclusive: -37.4% |
| O=C(O)CSc1cc(NS(=O)(=O)c2ccc(Cl)cc2)c2ccccc2c1O | inconclusive: -44.4% |
| COc1ccc2cc3[n+](cc2c1O)CCc1cc2c(cc1-3)OCO2 | active: -52.3% |
| COC(=O)c1ccc(OC)c(CN2C(=O)N(c3ccc(C(C)=O)cc3)S(=O)(=O)c3ccccc32)c1 | inconclusive: -46.7% |
| CN(C)c1ncnc2c1NC1=C(S2)C(=NCCCC(=O)O)CC(C)(C)C1 | inactive: -3.95% |
| c1ccc(N=Nc2ccc(C3=NCCO3)cc2)cc1 | active: -51.4% |
| Cc1cc(=O)[nH]c2nnc(SCC(=O)Nc3cc(C(F)(F)F)ccc3Cl)n12 | active: -58.1% |
| Cc1nc2sc(-c3ccccc3)cc2c(=O)n1N | active: -51.7% |
| OCc1ccnc2c(O)cccc12 | inconclusive: -44.4% |

| Structure (SMILES) | activity change, negative = inhibition |
| --- | --- |
| O=c1c(C(c2ccc(O)cc2)c2c(O)nc3n(c2=O)CCCS3)c(O)nc2n1CCCS2 | inconclusive: -30.1% |
| O=C(Nc1ccccc1)c1ccc2nc(-c3ccco3)c(-c3ccco3)nc2c1 | active: -51.2% |
| C/C(=N\Nc1nncc2ccccc12)c1cccc(OC(F)F)c1 | inconclusive: -36.1% |
| CN(C)c1ccc(C=c2c3cc(O)ccc3n3c2cc(-c2ccccc2)[n+]3C)cc1 | inconclusive: -43.2% |
| COc1ccc2nc(N(CCN(C)C)C(=O)/C=C/c3cccs3)sc2c1 | inactive: 10.7% |
| COC(=O)CC1(C(=O)OC)Oc2ccc(Br)cc2C(=O)N1c1ccc(Br)cc1Cl (stereo unspecified) | inactive: -0.626% |
| C=CCn1c(O)c(N=NC(=O)CNC(=O)/C=C/c2ccco2)c2ccccc21 | inconclusive: -38.4% |
| Cc1cc(-c2csc(NC(=O)c3ccc(C#N)cc3)n2)c(C)n1Cc1ccco1 | inconclusive: -43.8% |
| CCn1c(SCC(=O)NC(=O)NC(C)(C)C)nc2ccccc21 | inactive: 1.5% |
| COc1ccc(/C=C2/C(=O)N(c3cccc(F)c3)N=C2C)c(OC)c1 | active: -50.8% |
| O=C(CC(SCc1ccco1)c1ccc(O)cc1)c1cccs1 (stereo unspecified) | inconclusive: -32.5% |
| O=C(O)c1ccc(S(=O)(=O)/N=C2\C=C(Nc3ccccc3F)C(=O)c3ccccc32)cc1 | inconclusive: -41% |
| COc1ccc(NC(=O)C2CCCN(C(=O)Nc3ccc(OC)cc3)C2)cc1 (stereo unspecified) | inactive: 0.0593% |
| O=C(NCCc1ccccn1)c1n[nH]c(=O)c2ccccc12 | inactive: -6.72% |
| CCN(C(=O)c1oc2ccc(S(=O)(=O)N3CCCCCC3)cc2c1C)c1ccccc1 | inactive: -2.79% |
| CCOC(=O)c1sc(NC(=O)c2sccc2C)cc1C | inconclusive: -39.6% |
| CC(/C=N/NC(=O)Cc1cccn1C)=C\c1ccco1 | inconclusive: -40.7% |
| Clc1ccc(/C=C/c2nc3ccccc3[nH]2)cc1 | inconclusive: -37% |
| CCC(=O)Nc1cc(-c2nn(C)c(=O)c3ccccc23)ccc1OC | inactive: 0.0266% |
| CCOC(=O)Cc1csc(NC(=O)CSc2nc(N)c3c(C)c(C)sc3n2)n1 | inconclusive: -44.9% |
| CCOC(=O)C1=C(C)N=c2s/c(=C3/C(=O)Nc4ccccc43)c(=O)n2C1c1ccc(C)cc1 (stereo unspecified) | inconclusive: -32.6% |
| CS(=O)(=O)c1cccc(C(=O)Nc2nnc(C3=COCCO3)o2)c1 | inconclusive: -42.7% |
| Cc1ccccc1-c1noc(-c2ccc(O)cc2)n1 | inconclusive: -32% |

| Structure (SMILES) | activity change, negative = inhibition |
| --- | --- |
| CCN(CC)c1ccc(/C=N/NC(=O)c2ccoc2C)c(O)c1 | inconclusive: -36.2% |
| CCc1nc2oc3cc(OC)ccc3c(=O)c2c(=O)n1Cc1ccco1 | inconclusive: -44.2% |
| CCN(CC)C(=O)C1CCCN(C(=O)Nc2ccc3nsnc3c2)C1 (stereo unspecified) | inconclusive: -41.1% |
| COc1ccc(C2=NOC(C)(c3nnc(-c4ccncc4)o3)C2)cc1 (stereo unspecified) | active: -60.1% |
| Clc1ccc2nc(-c3ccccc3)cn2c1 | inconclusive: -38.7% |
| Cc1cc(-c2csc(N)n2)c(C)n1CCC(C)C | inconclusive: -33.8% |
| CC(C(=O)O)c1ccc(N2Cc3ccccc3C2=O)cc1 (stereo unspecified) | inconclusive: -35% |
| CC1(C)Cc2ccccc2C2=NNC(=O)C2=N1 | inconclusive: -37.1% |
| Cc1ccc(S(=O)(=O)/N=C2\C=C(NS(=O)(=O)c3ccccc3)C(=O)c3ccccc32)cc1 | inconclusive: -39.1% |
| COc1cc(C2c3c([nH]c(=O)[nH]c3=O)Nc3ccc4ccccc4c32)cc(OC)c1OC (stereo unspecified) | active: -60.1% |
| Cc1cccc(C)c1NC(=S)N(c1ccccc1)C(C)C | inactive: -2.79% |
| CN(C)c1ccc(-c2ccccc2)nn1 | inconclusive: -31.9% |
| O=Cc1ccc(N2CCN(S(=O)(=O)c3ccc4c(c3)CC(=O)N4)CC2)cc1 | active: -56.1% |
| O=CNc1ccc2c(c1)Cc1cccc(NC=O)c1-2 | inactive: -2.1% |
| c1ccc2[nH]c(CCCc3nc4ccccc4[nH]3)nc2c1 | inactive: -2.48% |
| O=c1c2ccccc2cnn1-c1nc2ccccc2[nH]1 | active: -72.8% |
| Cc1ccccc1OCc1occc1C(=O)Nc1cccc(-n2cnnn2)c1 | inactive: -7.46% |
| Cc1ccc(NC(=O)CN2C(=O)N/C(=C/c3ccco3)C2=O)cc1 | inconclusive: -36.9% |
| Cc1ccnc(Sc2ccc([N+](=O)[O-])cc2[N+](=O)[O-])n1 | inactive: 23.7% |
| CCOc1ccc2c(ccc(/C=C/c3cc(C)c4cccnc4c3O)[n+]2C)c1 | active: -58.4% |
| CCn1c(C)nc2c1C(=O)c1ccccc1C2=O | inconclusive: -31.2% |
| Cc1ccc(-n2sc3ccccc3c2=O)cc1S(=O)(=O)N1CCCCC1 | inconclusive: -31.8% |
